# In all, about 4,500 sequences were measured (“median log2 fold change of GCK-ALFA target abundance (FLAG IP / Myc IP barcode read proportion)”: median about 0.078, lowest 2% from about -0.6 on). Some of the results follow.
# B1: GBRAP_80_6811 (protein)
# chain: AEEELERALREIAELDPELAERLRRIVEEARAAGVPVEVLAELARAVLELLKVDKELAREALEELEEELDEELALGDTARVEATLRVHAGQMLLEVEELE
# B2: GBRAP_52_5985 (protein)
# chain: MEEEAKRLAEELVKLMLAGKEEEARKLMEEIAETKSQEFIMLVLEKLAEMAKTATPEEIDAIVDTALMLGDIALEAGFDEAEVDDGEARVAAAAVEALAA
# B3: GBRAP_11_2611 (protein)
# chain: KKEILKKMAELAEEAARVLEELLERGVEDEELRRKARELLEELAELVKKYGDEADKKLVEVALELLREAEEDPENAEEYWRQLLAALRVLSGDYLLDIEE
# B4: GBRAP_117_2599 (protein)
# chain: SEKLKKAEELAKELVELIVEALEKKKELSPEEAKKLEEETLKKATELVEEMLSLVSEEEVQELIAEQLQDLDPETRVEVWILFEEALAEAEEKRKKEEAE
# B5: GBRAP_43_5768 (protein)
# chain: SKELVEGAFETAELMLEDPSISEEQKVKAIIAAMELAADEGYVDEELLKKVVELAGKTLSKESLEKILEAAKKIAKEYPEAKKEFEEAAKLLEKYIKEKE
# B6: GBRAP_80_6780 (protein)
# chain: AEERIEEAIREVEELDPEIAERLRRILEELLAKGASPAVLEAFAEAVEAIAEALKLGLREEAREAVEELEEAAEEEDEANRLALLAGIAGELTLEVEEAE
# B7: GBRAP_52_5889 (protein)
# chain: SLEEAVKKLKEAVKAMAAGDKEKAEAILKEIVENFDEETILAAVEKLAEEVKTKSLEEAEAFYETALLLAEILEEAGKSEEVASYIEAIAGGTLYKIEQK
# B8: GBRAP_11_2875 (protein)
# chain: SKEATKKMLKLAEELAKALKKLLKEGVDNEKLREEIEKLVEELSKLVEEHGDEADKKLVEILKEEVEKSKEDKENAEEYVKHALAIAEVLAGQYLLKLEE
# B9: GBRAP_80_6839 (protein)
# chain: DRARLEAALARLAELLPELAPELRATVDRLLAAGVPVAVLADYVEAIVELAELDPEKARELLREAIEEVNELLAEGDLEGAIAVVRGYAGDALVEVEELE
# B10: GBRAP_52_6124 (protein)
# chain: MEEEARKLVEEIIKLVKEGKEEEARKLAREIVETKDDEFLELVADELAELIKKASEEEQEYLEKAAEILAEAIEEAGRDEALADYVLSRAAAAAYEKELE
# B11: GBRAP_166_4966 (protein)
# chain: MEEEIKEEFKKYLEELKEKMKKANEEEKLELLAEAAEKLREAKEAGVSRETLRELIRYLIELAKEVGLTDSQVYGALSILADLDEEEIDILEEEIAEVRA
# B12: GBRAP_160_4262 (protein)
# chain: SPELDALIADLRADRDEILALVDEISAEEVRTLAVTELGSHLLEAIELGIVTDEQEEQLAAIIDALEAELKANENASAETLKAIITEHFDAAIALLEKAK
# B13: GBRAP_53_6404 (protein)
# chain: SMEEIERLKEEIRKLTEKATKADDETRAKLVAEIGKLLKKLKEAGMPEEEIEKLAREVAEKLKAAGAPDSHLVALAKALEELGLEEATAEVGELLVEDLE
# B14: GBRAP_95_7057 (protein)
# chain: EDDRLAFEDLAEVTDTAVELGDAEAAERSAAELVRLHAEHGPLPLPESISLEARKLILEVAVRTADPATVEALLAALLAAARTAEERAALRAHYAALRAA
# B15: GBRAP_52_6177 (protein)
# chain: MRERMRRLVEEIVALAKAGDREGAEALIRELARTLDEEELREFAREFAELVLAAPVEELDLLAEVLDLIEDIFEEEGVDPRIIAYLRGEFARAAYERELA
# B16: GBRAP_11_2720 (protein)
# chain: KSEELKKLAEEAEKLAKEVEKLIKEGPKKEEIKKLQKKVEELLKKAKEIGADEDVLKTLEIAAENLKKAIEKPENVKQYLKNAQAALRVASGQLLLEAEE
# B17: GBRAP_139_3709 (protein)
# chain: SELEEKIKEARELTRKTKENPEESIKKIVELLLSVSEEDLEKVVKAIAEELSKLPLDEAEKLADLLLEEVEKESEDEDKINIVEAVLNGALARKAYEEEL
# B18: GBRAP_125_3066 (protein)
# chain: ADAAALADLATLAKALGFSDEDVAELVELAAASSFRQTLYAIFLAEGYEEVADLVEKITEEQAKAVLAEVTAELKKNPNLSKDEVVALTKAALEKAIAAA
# B19: GBRAP_52_6196 (protein)
# chain: MRERLRRLAEEIVELVRAGREEEARAMMREAAKTLSEEELELLGEEFAELARRARPEDFDAVFRAAEMFADVLEEEGHDEVLADDLLARVAAALYERELA
# B20: GBRAP_139_3689 (protein)
# chain: SALEEKIARARELTERAVAEGEPAIRELAAFLNSLSPEEREVAVEAIGERLLPLPYDKAEALFERLREVAREELGDEDLAEMIEIEENRTLARIAVREEA
# B21: GBRAP_166_4928 (protein)
# chain: MAEERVEEARERLREVIEEGKADPSLTDAQITVDLAYELAEILEEEDDEEVKLEIVREGLELAKEAGLDPRRLATLTASLAGFDDETREKIDEIVEEILK
# B22: GBRAP_160_4633 (protein)
# chain: MESLEDMLEIIDEYTEIALEYIEEGDLDGALNALRMMVGDLVMEASEDPRFSDEDVDKLAELGDEGVAEFEAARDESPEELKRLVLEHAERLKKLVKEFY
# B23: GBRAP_35_5595 (protein)
# chain: ELDELAVESLIDRIEALIEGVPELPVETISALANSLIRDARDLLERLKNNLEALKRLAEALKKLAEALEKYHSDDPLAQETLAKVNEALKELEEQAKKVE
# B24: GBRAP_52_6371 (protein)
# chain: MEEEARRLVEEILALMEAGDEEGAEALAERIVEEKSEELVALVLRELARLVRERPGRDPEALLQAAAILADELLESDVSSKEAWDALNELLAAGLALEQA
# B25: GBRAP_18_5399 (protein)
# chain: APSPFEQAWAALSEEDQDFVAEAIGDALSSEDTEERIDILVDALVELAARVSPEELYAAAYLLLHSVVSTMEEAQAVADRFIARVPERAPEARRVLEDLA
# B26: GBRAP_35_5577 (protein)
# chain: EDEEMLLETVEDLAEATIEAIKEGNLDLAIALLKAFLRTAKIAIEDLKNNKEALEKIAELLEKVIEEIKKYLSDNPEVQELKKELEELLKEAKEKLKKVK
# B27: GBRAP_52_6155 (protein)
# chain: MEERAKKYAEELIEAVKAGDEEKIEKLLKKIAEELSEEEIELMMRIIAEKVKELTPEEQERVVEAAIKLEDILIEAGHDENLASYLEAEVAGAAYKALQA
# B28: GBRAP_184_5150 (protein)
# chain: TTLRRAIEAETVEEALAQAAEVFAEAKAAGAKLTLAVFAEGFSVEEVAELARGLKALADEAGLTDATIILEVEADEEEADRVLAAADAAGVRAVVALEEP
# B29: GBRAP_160_4272 (protein)
# chain: SPEREELIEDIEEDREEILELVDKISPEEVRNFAVTSLGSHLLEAIDLGLVTDEQEDELMEIVDELEKELKEAENASKEEIKKIITEHYDKAIEILKKAK
# Target: GABARAP, O95166
# Sequence (O95166 whole entry, the tested form may be a part): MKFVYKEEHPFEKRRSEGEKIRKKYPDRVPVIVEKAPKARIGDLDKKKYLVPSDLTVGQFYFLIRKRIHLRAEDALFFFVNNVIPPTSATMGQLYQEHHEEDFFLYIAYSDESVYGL
# Assay: median log2 fold change of GCK-ALFA target abundance (FLAG IP / Myc IP barcode read proportion) (log2 ratio); each designed protein is fused to an ALFA-tag nanobody in HEK293 cells to bring the named protein to FLAG-tagged glucokinase (GCK); Myc marks an untargeted standard; higher = target protein stabilised (more abundant)
# Conditions: target protein: 3xFLAG-MCP-GCK-ALFA reporter; HEK293 landing pad (RPLP)
# Summary of the method: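 Binders fused to an ALFA nanobody were recombined as a library into HEK293 landing-pad cells, which were induced with 2 μg mL^−1 doxycycline and then transfected to express a FLAG-tagged target and a Myc-tagged standard. After 48 h, circular RNA barcodes recovered by anti-FLAG and anti-Myc immunoprecipitation of lysates were reverse transcribed, amplified and sequenced. Each binder's target abundance is the median log2 ratio of FLAG to Myc barcode read proportions, from barcodes present at ≥10^−7 in both replicates, binders carrying ≥3 barcodes per replicate, a 10^−6 pseudocount and pooled replicates.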
row,Binder,median log2 fold change
1,B1,-0.237
2,B2,-0.163
3,B3,0.0469
4,B4,0.216
5,B5,0.546
6,B6,0.000831
7,B7,0.197
8,B8,0.183
9,B9,0.152
10,B10,0.0535
11,B11,-0.12
12,B12,0.175
13,B13,0.267
14,B14,0.256
15,B15,0.0957
16,B16,-0.0462
17,B17,0.392
18,B18,-0.0841
19,B19,-0.049
20,B20,0.223
21,B21,0.0543
22,B22,-0.356
23,B23,0.34
24,B24,-0.586
25,B25,-0.0426
26,B26,0.248
27,B27,0.302
28,B28,0.0742
29,B29,0.239

# — the supplement of paper PMC12632987
